Our source for the Potency values is PubChem BioAssay AID360 (National Center for Advancing Translational Sciences (NCATS), 2006).

Out of some 48,000 compounds screened, about 550 (1.1%) were called active. About 4% were inconclusive and are not listed. Cut-off read from the data, not from the text of the source: active = potency below about 15 µM; inconclusive = mostly about 16 µM to 33 µM; inactive = weaker than that. Some of the results follow. Bounds are passed on as bounds.
Potency is the fitted concentration of half-maximal effect.

Sequence of UniProt P04062 (P04062 whole entry, looked up): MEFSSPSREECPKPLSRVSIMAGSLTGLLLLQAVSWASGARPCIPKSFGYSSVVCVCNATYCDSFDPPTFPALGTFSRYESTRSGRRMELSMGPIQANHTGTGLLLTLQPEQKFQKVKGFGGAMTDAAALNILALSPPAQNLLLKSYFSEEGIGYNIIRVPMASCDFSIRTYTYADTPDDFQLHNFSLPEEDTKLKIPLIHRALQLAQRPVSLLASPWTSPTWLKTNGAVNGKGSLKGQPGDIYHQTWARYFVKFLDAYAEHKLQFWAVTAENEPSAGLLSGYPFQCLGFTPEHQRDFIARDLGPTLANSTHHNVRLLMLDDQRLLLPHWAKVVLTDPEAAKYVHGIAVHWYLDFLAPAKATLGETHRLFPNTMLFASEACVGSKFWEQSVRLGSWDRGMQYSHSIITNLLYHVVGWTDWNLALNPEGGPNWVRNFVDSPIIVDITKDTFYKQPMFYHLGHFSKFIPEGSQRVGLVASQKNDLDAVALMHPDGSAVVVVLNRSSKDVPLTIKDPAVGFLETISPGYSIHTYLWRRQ

The assay concerns the target Lysosomal acid glucosylceramidase (Homo sapiens) (UniProt P04062). As to the kind of experiment: Glucocerebrosidase.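 Note: the screen sought inhibitors.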 The following applies: purified enzyme, resorufin glucoside fluorescence (screen aimed at inhibitors), 20 min; series mostly up to 77 µM. The essentials:
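Compounds titrated against 0.2 nM normal enzyme, 30 uM resorufin beta-D-glucopyranoside substrate, citrate/phosphate buffer with taurocholate and tween-20, pH 5.9. Reaction ran 20 min at room temperature; fluorescence (Ex 548/Em 600) gave AC50.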
Regarding `N#Cc1nc(-c2ccc(OCc3ccccc3)cc2)oc1NCCN1CCOCC1`, the Potency result was “inactive”. Next, `O=C(CCCn1c(=O)[nH]c2cc(Cl)ccc2c1=O)NCCN1CCN(c2ccccc2)CC1`: inactive: > 76.9 µM. Take `COc1ccc(CNc2oc(-c3cccc4ccccc34)nc2C#N)cc1`: the Potency was inactive: > 76.9 µM. The value for `CCn1c(COc2ccc(Cl)cc2)nnc1SCc1ccc(C#N)cc1` was inactive: > 76.9 µM. On to `COc1ccc(S(=O)(=O)Nc2ccc3c(c2)COC3=O)cc1OC`, for which the Potency is inactive: > 76.9 µM. For the compound `O=C(Cc1cn2ccsc2n1)OCc1ccccc1`, the Potency was inactive: > 76.9 µM. Next, `CCOC(=O)C1CCN(C(=O)Cn2cc(C#N)c3ccccc32)CC1`: inactive: > 76.9 µM; `COc1ccc(CCNC(=O)C2CCN(Cc3nc(-c4ccccc4C)oc3C)CC2)cc1OC`: inactive: > 76.9 µM. The value for `COc1ccc(C(c2nnnn2C(C)(C)C)N2CCN(C)CC2)cc1OC` (centres undefined) was inactive: > 76.9 µM. Next, `COc1ccc(S(=O)(=O)NCCSCc2cccs2)cc1`: inactive: > 76.9 µM; `Cc1ccccc1C(NC(N)=O)c1ccccc1` (centres undefined): inactive: > 76.9 µM.

On to `O=C(Nc1ccccc1N1CCCCC1)c1ccc2nccnc2c1`, for which the Potency is inactive: > 76.9 µM. The value for `COc1cc(NC(=O)Cn2nnc(-c3ccncc3)n2)cc(OC)c1` was inactive: > 76.9 µM; that for `COC(=O)c1ccc(NC(=O)CSc2nnc(CNc3ccc(F)cc3)n2C)cc1` was inactive: > 76.9 µM.

In the case of `Cc1cc2ncc(C(=O)Nc3ccccc3)c(C)n2n1`, the Potency was inactive: > 76.9 µM. The value for `CCOc1ccccc1-n1c(SCC(N)=O)nc2ccccc2c1=O` was inactive: > 76.9 µM; that for `CCC(=O)Nc1ccccc1C(=O)N1CCOCC1` was inactive: > 76.9 µM; that for `O=C1CC(c2cccs2)CC2=C1C(c1ccccc1)n1ncnc1N2` (centres undefined) was inactive: > 76.9 µM. On to `Cc1ncoc1C(=O)NCc1ccccc1Cl`, for which the Potency was inactive: > 76.9 µM. Next, `Cc1nc(S(=O)(=O)N(C)c2ccccc2)c(C#N)c(C)c1Cl`: inactive: > 76.9 µM.

As to `CCOc1cc(N2CCOCC2)c(OCC)cc1NS(=O)(=O)c1ccc(Cl)s1`, the Potency is inactive: > 76.9 µM.

In the case of `O=C1CC(=O)N(Cc2ccco2)C(=O)N1`, the Potency was inactive: > 76.9 µM. In the case of `Cc1cccn2c(=O)c3cc(C(=O)N(C)C)n(C)c3nc12`, the Potency is inactive: > 76.9 µM. Next, `Cn1c(=O)c2c(nc(NCCCO)n2C/C=C/c2ccccc2)n(C)c1=O`: inactive: > 76.9 µM. On to `CCOCCCn1c(=S)[nH]c2cc(C(=O)NCCN(CC)CC)ccc2c1=O`, for which the Potency is inactive: > 76.9 µM.

On to `CCc1ccc(NC(=O)C2CC(=O)N(C(C)C)C2)cc1` (centres undefined), for which the Potency was inactive: > 76.9 µM. Next, `CCCCOc1ccc(Cl)cc1CSc1nncn1N`: inactive: > 76.9 µM; `Cn1c(=O)c2ccccc2n(Cc2ccccc2F)c1=O`: inactive: > 76.9 µM; `COc1ccc2c(C(=O)CN(C)C3CCCCC3)c[nH]c2c1`: inactive: > 76.9 µM. The value for `O=C(CN1C(=O)C2C3C=CC(C3)C2C1=O)NCCc1ccccc1` (centres undefined) was inactive: > 76.9 µM; that for `FC(F)(F)c1cnc(Nc2ccc(N3CCOCC3)cc2)c(Cl)c1` was inactive: > 76.9 µM.

Take `COc1ccccc1Nc1nc(N)nc(CN2CCN(c3ccccc3F)CC2)n1`: the Potency was active: 2.37 µM.

Turning to `C/C(Cl)=C\Cn1c(NCCc2ccccc2)nc2c1c(=O)n(C)c(=O)n2C`, the Potency is inactive: > 76.9 µM. Next, `COc1ccc(CCNS(=O)(=O)c2cccc(F)c2)cc1OC`: inactive: > 76.9 µM; `Cc1onc(-c2ccccc2)c1C(=O)Nc1nc(-c2ccc(F)c(F)c2)cs1`: inactive: > 76.9 µM; `O=C(O)CCCCNS(=O)(=O)c1ccc(Cl)c(C(F)(F)F)c1`: inactive: > 76.9 µM. Next, `CCOC(=O)/C=c1\s/c(=C\c2ccc3c(c2)OCCO3)c(=O)n1CC(=O)NCC1CCCO1` (centres undefined): inactive: > 76.9 µM. For the compound `O=C(c1cccc2ccccc12)N1CCN(c2ccccc2F)CC1`, the Potency was inactive: > 76.9 µM. Turning to `CC(C)c1ccc(-c2nnn(CCC(=O)O)n2)cc1`, the Potency was inactive: > 76.9 µM. Next, `Cc1ccc(N(CC(=O)Nc2cccc(C)c2)S(=O)(=O)c2cccc3nonc23)cc1`: inactive: > 76.9 µM.

For the compound `CC(C)OC(=O)CSc1nnc(-c2ccc(Cl)cc2)n1N`, the Potency was inactive: > 76.9 µM. Next, `O=C(CN(Cc1ccc(F)cc1)C(=O)c1ccco1)NCc1ccc(F)cc1`: inactive: > 76.9 µM. The value for `COc1ccc(-c2oc3ncnc(NCCN4CCOCC4)c3c2-c2ccc(OC)cc2)cc1` was “inactive”; that for `O=C(c1ccc(O)cc1)c1ccc(C(=O)O)c(C(=O)O)c1` was inactive: > 76.9 µM; that for `CCOC(=O)C(C)(C)C(=O)C(C)(C)C(O)c1ccccn1` (centres undefined) was inactive: > 76.9 µM. Take `CN(C(=O)c1cccc(C#N)c1)c1nnc(-c2ccncc2)s1`: the Potency was inactive: > 76.9 µM. Turning to `CCCN(Cc1cc2cc(C)ccc2[nH]c1=O)S(C)(=O)=O`, the Potency is inactive: > 76.9 µM. The value for `CC(C)c1nc(-c2ccccn2)no1` was inactive: > 76.9 µM; that for `CC1CCN(c2ccc(C(=O)O)cc2N)CC1` was inactive: > 76.9 µM. Turning to `CCCCCCn1c(CN2CCN(Cc3ccccc3)CC2)nc2c1c(=O)n(C)c(=O)n2C`, the Potency was inactive: > 76.9 µM. Next, `Cn1c(Cc2ccccc2)nnc1SCCC(=O)Nc1ccccc1`: inactive: > 76.9 µM; `Cc1ccc(C(=O)Nc2c(C(=O)NCc3ccco3)cnn2-c2ccccc2)cc1`: inactive: > 76.9 µM; `Cc1cc(C)c2nc(-c3ccccn3)cc(C(=O)NCc3ccco3)c2c1`: inactive: > 76.9 µM. The value for `Nn1c(SCC(=O)Nc2ccccc2F)nnc1-c1cccnc1` was inactive: > 76.9 µM; that for `COCCOCC(O)CN1CCN(c2ccc(C)cc2)CC1` (centres undefined) was inactive: > 76.9 µM. The value for `Cc1cc2nc(C3CCN(CC4COc5ccccc5O4)CC3)[nH]c2cc1C` (centres undefined) was inactive: > 76.9 µM. In the case of `Cc1cc(C)nc(-n2nc(C)cc2NC(=O)c2cc3ccccc3oc2=O)n1`, the Potency is inactive: > 76.9 µM. Next, `Cc1c(C(C)NC(=O)Nc2ccc(F)cc2F)cnn1C` (centres undefined): inactive: > 76.9 µM; `CCCc1ccccc1OCCNC(C)=O`: inactive: > 76.9 µM.
